Laboratory results taken from the supplement of paper PMC9446081.
Out of some 39,000 compounds screened, about 220 (0.56%) showed activity. The list shows a part of the results.

tested on: Escherichia coli K-12 BW25113; assay: relative growth (OD600 normalised to plate interquartile mean) (fraction); higher = less growth inhibition, active = 0.2 or less; settings: 50 µM; LB; incubation time: overnight (16-24 h)
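Note: static incubation at 37 °C against the wild-type strain, values averaged over two biological replicates.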

Structure (SMILES) | relative growth
Cc1ccc(S(=O)(=O)Nc2ccc3c(c2)C(=O)N([C@H](C)CO)C[C@H](C)[C@H](CN(C)S(C)(=O)=O)O3)cc1 | inactive: 1.01
C[C@@H]1CN([C@H](C)CO)C(=O)Cc2cc(NC(=O)CCN3CCOCC3)ccc2O[C@H]1CN(C)Cc1ccncc1 | inactive: 0.991
COCC(=O)N1C[C@H](C)[C@H](OC)CN(C)C(=O)c2cc(NC(=O)c3ccc(F)cc3)ccc2OC[C@@H]1C | inactive: 0.986
C[C@H]1CN([C@@H](C)CO)C(=O)c2cc(NC(=O)Nc3ccccc3)ccc2O[C@H]1CN(C)Cc1ccc(Cl)c(Cl)c1 | inactive: 0.986
COc1ccc(NC(=O)Nc2ccc3c(c2)C(=O)N([C@@H](C)CO)C[C@H](C)[C@H](CN(C)Cc2ccc4c(c2)OCO4)OCCCC[C@@H](C)O3)cc1 | inactive: 1.01
COc1ccc(NC(=O)Nc2ccc3c(c2)[C@@H]2C[C@@H](CC(=O)N4CCN(C)CC4)O[C@@H](CO)[C@@H]2O3)cc1 | inactive: 0.995
O=c1[nH]c2c(=O)nc[nH]c2nc1-c1ccccc1 | inactive: 1
CCS(=O)(=O)N1C[C@]2(CN(Cc3cccc(c3)Cl)[C@@H](CO)c3c2c2ccc(cc2n3C)OC)C1 | inactive: 1.02
CC(C)CC#Cc1ccc2c(c1)O[C@@H](CN(C)C(=O)C1CCOCC1)[C@@H](C)CN([C@H](C)CO)S2(=O)=O | inactive: 0.923
C1CNCCN1 | inactive: 1.02
C[C@H](O)C#Cc1ccc2c(c1)O[C@@H](CN(C)C(=O)CN(C)C)[C@H](C)CN([C@@H](C)CO)S2(=O)=O | inactive: 1.01
C[C@H]1CN([C@@H](C)CO)C(=O)c2cc(NS(C)(=O)=O)ccc2O[C@H]1CN(C)Cc1ccc(C(=O)Nc2ccccc2N)cc1 | inactive: 1.01
COc1ccc(S(=O)(=O)N(C)C[C@@H]2Oc3cc(C#CC4CCCC4)ccc3S(=O)(=O)N([C@@H](C)CO)C[C@H]2C)cc1 | inactive: 1.05
C[C@@H]1CN([C@H](C)CO)C(=O)c2cc(NS(=O)(=O)c3ccc(Cl)cc3)ccc2O[C@@H](C)CCCCO[C@H]1CN(C)S(=O)(=O)c1ccc(F)cc1 | inactive: 1.06
COC(=O)[C@H]1C2C(=O)N(C3CC3)C[C@]23C=C[C@H]1O3 (some centres not stated) | inactive: 1.04
C[C@@H]1COC(=O)[C@@H](Cc2ccc(F)cc2)CCC=CC[C@@H](CC(=O)N[C@H](CO)Cc2ccccc2)C(=O)N1 | inactive: 1.02
C[C@@H]1CN([C@H](C)CO)C(=O)Cc2cc(NS(=O)(=O)c3cn(C)cn3)ccc2O[C@H]1CN(C)S(C)(=O)=O | inactive: 0.878
C[C@@H]1CN([C@H](C)CO)C(=O)c2cc(NS(=O)(=O)c3cccs3)ccc2O[C@H]1CN(C)C(=O)Nc1cccc2ccccc12 | inactive: 1.03
COc1ccc(cc1)NC(=O)N1CC[C@]2(CC1)CN([C@@H](CO)c1[nH]c3cc(ccc3c12)OC)C(=O)CN1CCOCC1 | inactive: 1
C[C@H](CO)N1C[C@H](C)[C@H](CN(C)C(=O)Nc2ccc(C(F)(F)F)cc2)Oc2ccc(NC(=O)C3CCCCC3)cc2CC1=O | inactive: 0.993
C[C@H](CO)N1C[C@H](C)[C@@H](CN(C)C(=O)Nc2cccc3ccccc23)Oc2ccc(NC(=O)Nc3ccc4c(c3)OCO4)cc2C1=O | inactive: 0.957

Structure (SMILES) | relative growth
Cn1cnc(S(=O)(=O)N2C[C@@H](O)COC[C@H]3O[C@H](CC(=O)NC4Cc5ccccc5C4)CC[C@@H]32)c1 | inactive: 0.878
N[C@@H](CC(=O)N1CCn2c(nnc2C(F)(F)F)C1)Cc1[nH]nc2c(F)c(F)ccc12 | inactive: 1.02
C[C@H](CO)N1C[C@H](C)[C@@H](CN(C)Cc2ccccc2)OCCCC[C@H](C)Oc2ccc(NS(=O)(=O)c3ccc(F)cc3)cc2C1=O | inactive: 1.03
CC(C)CC#Cc1ccc2c(c1)O[C@H](CN(C)C(=O)Cc1ccccn1)[C@@H](C)CN([C@@H](C)CO)S2(=O)=O | inactive: 1
NC(=O)c1cccc(Br)n1 | inactive: 1
Cc1cc2nc3ccc(N(C)C)cc3[s+]c2cc1N.[Cl-] | inactive: 1.1
C[C@H](CO)N1C[C@H](C)[C@@H](CN(C)Cc2ccc(C(=O)O)cc2)Oc2ccc(NC(=O)Nc3ccc(C(F)(F)F)cc3)cc2C1=O | inactive: 0.948
Cc1ccc(S[C@]2(C(=O)NCc3ccccc3)CC(=O)N(Cc3ccccc3Cl)[C@@H]2c2ccc(CO)cc2I)cc1 | inactive: 1.01
CCS(=O)(=O)N1C[C@]2(CCN(CC2)C(=O)c2cccnc2)c2c(n(c3cc(ccc23)OC)C)[C@@H]1CO | inactive: 1.01
CO[C@H](C(=O)N(C)C[C@H]1OCc2ccccc2-c2c(n(C)c3ccccc23)C(=O)N([C@@H](C)CO)C[C@@H]1C)c1ccccc1 | inactive: 0.994
C[C@@H]1CCCCO[C@@H](CN(C)Cc2ccccc2)[C@H](C)CN([C@@H](C)CO)C(=O)c2cc(NC(=O)Cc3ccccc3)ccc2O1 | inactive: 0.991
C[C@@H]1CN([C@H](C)CO)C(=O)CCCn2nncc2CO[C@@H]1CN(C)S(=O)(=O)c1ccc2c(c1)OCCCO2 | inactive: 1
CC12C=CC(=O)C=C1CCC1C2C(=O)CC2(C)C1CCC2(O)C(=O)CO (configuration not stated) | inactive: 1.02
COc1c2occc2c(OC)c2c(=O)cc(C)oc12 | inactive: 1.09
Cc1ccc(S(=O)(=O)N(C)C[C@H]2Oc3c(NC(=O)c4cnccn4)cccc3C(=O)N([C@H](C)CO)C[C@H]2C)cc1 | inactive: 0.987
C[C@@H]1CCCCO[C@H](CN(C)Cc2ccccc2)[C@@H](C)CN([C@@H](C)CO)C(=O)c2cc(NC(=O)NC3CCCCC3)ccc2O1 | inactive: 0.91
Cn1sccc1=O | active: 0.0369
C[C@@H]1CCCCO[C@@H](CN(C)CC2CCCCC2)[C@@H](C)CN([C@@H](C)CO)C(=O)c2cc(NC(=O)Nc3ccc(F)cc3)ccc2O1 | inactive: 1
COc1ccc(S(=O)(=O)N[C@@H]2C=C[C@H](CC(=O)N3CCC(Cc4ccccc4)CC3)O[C@H]2CO)cc1 | inactive: 0.982
O=C(C[C@H]1CC[C@@H](NC(=O)c2ccc(F)cc2)[C@@H](CO)O1)NCc1ccncn1 | inactive: 1.04
O=C(NCC(F)(F)F)[C@H]1[C@H](CO)[C@H]2Cn3c(cccc3=O)[C@@H]1N2C(=O)C1CCC1 | inactive: 1.03

Structure (SMILES) | relative growth
Cc1noc(C)c1S(=O)(=O)N(C)C[C@H]1OCCCC[C@H](C)Oc2ccc(NC(=O)Nc3cccc4ccccc34)cc2C(=O)N([C@H](C)CO)C[C@H]1C | inactive: 1.02
NC1CCC(O)CC1 (configuration not stated) | inactive: 1.07
CC(C)NC(=O)N(C)C[C@H]1Oc2c(NS(=O)(=O)c3ccc(Cl)cc3)cccc2C(=O)N([C@@H](C)CO)C[C@@H]1C | inactive: 1.03
C[C@H](CO)N1C[C@H](C)[C@H](CN(C)S(=O)(=O)c2cn(C)cn2)Oc2c(NC(=O)c3ccc(-c4nccs4)cc3)cccc2C1=O | inactive: 0.984
COc1ccc(S(=O)(=O)Nc2ccc3c(c2)C(=O)N([C@H](C)CO)C[C@@H](C)[C@@H](CN(C)S(C)(=O)=O)OCCCC[C@@H](C)O3)cc1 | inactive: 0.996
O=c1oc2ccccc2c(O)c1Cc1c(O)c2ccccc2oc1=O | inactive: 0.939
COCC#Cc1ccc2c(c1)O[C@H](CN(C)C(=O)Nc1ccccc1F)[C@H](C)CN([C@@H](C)CO)S2(=O)=O | inactive: 0.976
C[C@@H]1CN([C@@H](C)CO)C(=O)c2c(c3ccccc3n2C)-c2ccccc2CO[C@H]1CN(C)Cc1cccc(O)c1 | inactive: 0.905
C[C@H]1CCCCO[C@H](CN(C)C(=O)Nc2ccccc2)[C@@H](C)CN([C@@H](C)CO)C(=O)c2cc(NC(=O)Nc3ccccc3)ccc2O1 | inactive: 1.04
Cc1ccc(S(=O)(=O)Nc2ccc3c(c2)C(=O)N([C@H](C)CO)C[C@H](C)[C@@H](CN(C)S(=O)(=O)c2cn(C)cn2)O3)cc1 | inactive: 0.993
CN1CCN(C(=O)C[C@H]2CC[C@@H](NC(=O)c3ccc4c(c3)OCO4)[C@@H](CO)O2)CC1 | inactive: 0.972
C[C@H]1CN([C@@H](C)CO)C(=O)c2cccc(NC(=O)c3ccc(-c4nccs4)cc3)c2O[C@H]1CN(C)Cc1ccc(C(=O)Nc2ccccc2N)cc1 | inactive: 1.01
C[C@@H]1CN([C@H](C)CO)C(=O)c2cccc(NC(=O)CCCCCC(=O)Nc3ccccc3N)c2O[C@H]1CN(C)C(=O)Nc1ccccc1 | inactive: 0.976
C[C@@H]1CN([C@@H](C)CO)C(=O)CCCn2nncc2CO[C@@H]1CN(C)S(=O)(=O)c1ccccc1C#N | inactive: 0.963
CCS(=O)(=O)Nc1ccc2c(c1)C(=O)N(C)[C@@H]1CC[C@H](CC(=O)N3CCN(C)CC3)O[C@H]1CO2 | inactive: 0.981
CCC(=O)Nc1ccc2c(c1)OC[C@@H](C)N(S(=O)(=O)c1cn(C)cn1)C[C@@H](C)[C@H](OC)CN(C)C2=O | inactive: 0.993
C[C@@H]1CCCCO[C@H](CN(C)S(=O)(=O)c2cccs2)[C@@H](C)CN([C@@H](C)CO)C(=O)c2cc(NC(=O)c3ccccc3)ccc2O1 | inactive: 1.06
C[C@@H]1CN([C@H](C)CO)C(=O)CCCn2cc(nn2)CO[C@H]1CN(C)C(=O)Nc1ccc(N2CCN(C)CC2)cc1 | inactive: 0.965
COCC#Cc1ccc2c(c1)O[C@H](CN(C)S(=O)(=O)c1cccc(OC)c1)[C@H](C)CN([C@H](C)CO)S2(=O)=O | inactive: 1.02
O=C(C[C@@H]1C=C[C@H](NC(=O)Cc2ccccn2)[C@@H](CO)O1)NCCc1ccncc1 | inactive: 0.989
